Experimental data: the supplement of paper PMC12297408
Where a name gives a salt, the structure may show the parent alone. Among all 1,300 compounds or so, about 40 (3%) showed activity. The list shows a part of the results.

Test system: Plasmodium falciparum NF54/iGP1_RE9H ulg8 stage V gametocytes
Assay: gametocyte viability (luciferase signal relative to DMSO control) (% of DMSO control); higher = less gametocytocidal activity, active = 50 or less
Conditions: exposure time: 72 h
Method in brief: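 Compounds from 10 mM DMSO stocks were spotted at nanolitre scale into 96-well plates, and day-12 stage V NF54/iGP1_RE9Hulg8 gametocytes (~2.5% gametocytemia, 3% hematocrit; medium with 0.5% Albumax II) were added to reach 10 µM or 1 µM, one well per concentration. The plates were kept at 37 °C for 72 h. Luminescence was then read on an IVIS Lumina II after mixing 90 µl of culture with 10 µl D-luciferin (30 mg/ml). Viability values are relative to the plate's mean DMSO vehicle signal.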

Row | SMILES | gametocyte viability (concentration: 1 µM) | gametocyte viability (concentration: 10 µM)
1 | C[C@H](CS)C(=O)N1CCC[C@H]1C(=O)O [Captopril] | inactive: 86.8 | inactive: 84
2 | CN(Cc1cc(Br)cc(Br)c1N)C1CCCCC1 [Bromhexine hydrochloride] | inactive: 86.9 | inactive: 80.8
3 | NCCc1ccc(O)c(O)c1 [Dopamine hydrochloride] | inactive: 81.2 | inactive: 91.8
4 | CC[C@H](c1ccc(O)cc1)[C@@H](CC)c1ccc(O)cc1 [Hexestrol] | inactive: 89.5 | inactive: 89
5 | Cc1c(Nc2ncccc2C(=O)O)cccc1C(F)(F)F [Flunixin meglumine] | inactive: 80 | inactive: 82.7
6 | CC1(C)O[C@@H]2C[C@H]3[C@@H]4C[C@H](F)C5=CC(=O)CC[C@]5(C)[C@H]4[C@@H](O)C[C@]3(C)[C@]2(C(=O)CO)O1 [Flurandrenolide] | inactive: 91.7 | inactive: 93.5
7 | NNC(=O)c1ccncc1 [Isoniazid] | inactive: 80.8 | inactive: 83.4
8 | COc1ccc(-c2ccc3cc(C(=O)O)ccc3c2)cc1C12CC3CC(CC(C3)C1)C2 [Adapalene] | inactive: 91.8 | inactive: 102
9 | CCN1CCCC1CNC(=O)c1cc(S(N)(=O)=O)ccc1OC (stereo not drawn) [Sulpiride] | inactive: 90 | inactive: 90.4
10 | CCCCc1oc2ccccc2c1C(=O)c1cc(I)c(OCCN(CC)CC)c(I)c1 [Amiodarone hydrochloride] | inactive: 100 | inactive: 87.3
11 | O=C(O)c1cccnc1 [Niacin] | inactive: 89.8 | inactive: 83.7
12 | Cc1cccc(N(C)C(=S)Oc2ccc3ccccc3c2)c1 [Tolnaftate] | inactive: 87 | inactive: 90.5
13 | O=c1[nH]c(=O)n([C@H]2C[C@H](O)[C@@H](CO)O2)cc1I [Idoxuridine] | inactive: 78.3 | inactive: 83.7
14 | C#C[C@]1(O)CC[C@H]2[C@@H]3CCC4=Cc5oncc5C[C@]4(C)[C@H]3CC[C@@]21C [Danazol] | inactive: 79.2 | inactive: 80.5
15 | CCOc1ccc(Cc2nccc3cc(OCC)c(OCC)cc23)cc1OCC [Ethaverine hydrochloride] | inactive: 87.3 | inactive: 87
16 | O=C(Nc1ccc([N+](=O)[O-])cc1Cl)c1cc(Cl)ccc1O [Niclosamide] | inactive: 80.7 | inactive: 75.6
17 | CC12CC3CC(C)(C1)CC(N)(C3)C2 [Memantine Hydrochloride] | inactive: 99.8 | inactive: 96.7
18 | CN1CCCN=C1/C=C/c1cccs1 [Pyrantel tartrate] | inactive: 90 | inactive: 85.4
19 | CCC[C@@H]1C[C@@H](C(=O)N[C@@H]([C@H]2O[C@H](SC)[C@H](O)[C@@H](O)[C@H]2O)[C@@H](C)O)N(C)C1 [Lincomycin hydrochloride] | inactive: 94.7 | inactive: 97
20 | CCN(CC)CCNC(=O)c1cc(Br)c(N)cc1OC [Bromopride] | inactive: 104 | inactive: 97.1

Row | SMILES | gametocyte viability (concentration: 1 µM) | gametocyte viability (concentration: 10 µM)
21 | OC(CCN1CCCCC1)(c1ccccc1)c1ccccc1 [Pridinol methanesulfonate salt] | inactive: 83.5 | inactive: 87.9
22 | CCCCC(=O)N(Cc1ccc(-c2ccccc2-c2nnn[nH]2)cc1)[C@H](C(=O)O)C(C)C [Valsartan] | inactive: 81.5 | inactive: 81
23 | O=C1c2cccc(O)c2C(=O)c2c(O)cccc21 [1,8-Dihydroxyanthraquinone] | inactive: 82.8 | inactive: 85.1
24 | CC(C)NNC(=O)c1ccncc1 [Iproniazide phosphate] | inactive: 78.8 | inactive: 77.5
25 | O=C(O)CCC(=O)c1ccc(-c2ccccc2)cc1 [Fenbufen] | inactive: 91.8 | inactive: 93.4
26 | N[C@@H](Cc1ccc(O)c(O)c1)C(=O)O [Levodopa] | inactive: 92.2 | inactive: 92.6
27 | CN1CCN2c3ccccc3Cc3ccccc3C2C1 (stereo not drawn) [Mianserine hydrochloride] | inactive: 84.4 | inactive: 82.9
28 | C[C@H](CCC(=O)O)[C@H]1CC[C@H]2[C@@H]3C(=O)C[C@@H]4CC(=O)CC[C@]4(C)[C@H]3CC(=O)[C@]12C [Dehydrocholic acid] | inactive: 95.4 | inactive: 93.6
29 | CCOC(=O)C1=C(C)NC(C)=C(C(=O)OC)C1c1cccc(Cl)c1Cl (stereo not drawn) [Felodipine] | inactive: 82.3 | inactive: 96.3
30 | O=C1c2c(O)ccc(O)c2C(=O)c2c(NCCNCCO)ccc(NCCNCCO)c21 [Mitoxantrone dihydrochloride] | inactive: 86.2 | active: 12.9
31 | O=C(NC(Cc1cc(=O)[nH]c2ccccc12)C(=O)O)c1ccc(Cl)cc1 (stereo not drawn) [Rebamipide] | inactive: 78.2 | inactive: 84.5
32 | Nc1ncn(C2OC(CO)C(O)C2O)c(=O)n1 (stereo not drawn) [Azacytidine-5] | inactive: 86.9 | inactive: 81.9
33 | C[N+](C)(C)CCOC(N)=O [Carbachol] | inactive: 93.9 | inactive: 91
34 | CC(C)(C)NC[C@H](O)COc1cccc2c1CCCC2=O [(-) -Levobunolol hydrochloride] | inactive: 93.6 | inactive: 91.2
35 | CCCNC(C)(C)COC(=O)c1ccccc1 [Meprylcaine hydrochloride] | inactive: 84.1 | inactive: 84.9
36 | NC[C@@H]1O[C@H](O[C@H]2[C@@H](O)[C@H](O[C@@H]3[C@@H](O)[C@H](N)C[C@H](N)[C@H]3O[C@H]3O[C@H](CN)[C@@H](O)[C@H](O)[C@H]3N)O[C@@H]2CO)[C@H](N)[C@@H](O)[C@@H]1O [Neomycin sulfate] | inactive: 81.7 | inactive: 84.7
37 | NC1CCN(c2c(F)cc3c(=O)c(C(=O)O)cn(C4CC4)c3c2Cl)C1 (stereo not drawn) [Clinafloxacin] | inactive: 92.1 | inactive: 90.8
38 | CCC1(C)CC(=O)NC1=O (stereo not drawn) [Ethosuximide] | inactive: 82.9 | inactive: 81.6
39 | C[N+](C)(CCOc1ccccc1)Cc1ccccc1.O=C([O-])c1cc2ccccc2cc1O [Bephenium hydroxynaphthoate] | inactive: 87.3 | inactive: 89.9
